Source: PubChem BioAssay AID1671194 (National Center for Advancing Translational Sciences (NCATS), 2021)
Hit rate of the full screen: of about 140,000 compounds, about 240 (0.17%) were called active. Inconclusive results, whose numbers are uncertain, are shown with a selection of clear calls. The call rests on the fitted dose curve; in most records, active means well fitted inhibition curve with a large enough effect; inconclusive means small, poorly fitted or top-dose-only effect; inactive means no such curve, though single readings can be large or run the other way. Potencies of inconclusive entries are doubtful fits and often do not repeat.

experiment: Primary qHTS assay for inhibitors of alpha-synuclein gene (SNCA) expression; conditions: HEK-293 SNCA-luciferase knock-in, luminescence, 24 h; series mostly up to 57.2 µM; further: nearly all actives have a fitted effect of over 45% in size
Potency means the concentration at half of the fitted maximal effect; tags describe the fitted curve by direction and shape.

Potency, inactive:
O=C(c1cccc(F)c1)N1CCCC(c2noc(COc3ccccc3)n2)C1 (stereo unspecified), CN(C)c1ncc2c(n1)C(C)(C(=O)Nc1ccc(Cl)cc1)CCC2 (stereo unspecified), Cc1ccc(-c2cc(N3CCCN(C(=O)c4ccco4)CC3)n[nH]2)cc1C, CC(=O)NC1(C)CCCN(c2ccc(Oc3ccccc3)cc2)C1 (stereo unspecified), FC(F)(F)c1cccc(C2=NOC3(CCCN(Cc4cccs4)C3)C2)c1 (stereo unspecified), O=C(Nc1cc(F)c(F)c(F)c1)N1CCC(OC2CCN(Cc3ccccc3)CC2)CC1, O=C(CCc1cc(Cl)no1)N1CCc2c(nc3cc(-c4ccccc4)[nH]n3c2=O)C1, CC(C)CNC(=O)c1cc2n(n1)CC(c1ccc3c(c1)OCO3)OC2 (stereo unspecified), Cc1nn(-c2ccccc2)c(Oc2ccccc2F)c1CCC(=O)N1CCSCC1, O=C(Cc1ccccc1Cl)N[C@@H]1CN(c2ncccn2)C[C@H]1CO, Cc1ccccc1CN1CCc2nc(N(C)Cc3cccnc3)[nH]c(=O)c2CC1, O=C(NC1CCCC1)O[C@H]1COCCN(c2nc3ccccc3o2)C1, COc1ccc(C2(C(=O)N3CCCC(c4nc(-c5ccccc5)no4)CCNC(=O)CC3)CC2)cc1 (stereo unspecified), COCC(=O)N1CC[C@@H](CC(=O)O)[C@@H](CC2=NCCc3cc(OC)ccc32)C1, COc1ccc(S(=O)(=O)c2cnc(SCC(=O)Nc3cc(F)ccc3C)[nH]c2=O)cc1Cl

Potency, inconclusive:
CC(=O)N1CCc2c(sc3c2c(=O)n(Cc2ccccc2)c(=O)n3CC(=O)Nc2ccc(C)c(F)c2)C1 25.1 µM [inhibitor, single point], CCc1ccc(S(=O)(=O)c2nnn(-c3cccc(C)c3)c2N)cc1 2.51 µM [inhibitor, single point], CCN1c2cc(C(=O)NCc3ccc(C(C)C)cc3)ccc2C(=O)N2CCCCCC21 (stereo unspecified) 39.8 µM [inhibitor, single point], CCNc1cc(N2CCC(CCC(=O)NCCN3CCCCCC3)CC2)ncn1 15.8 µM [inhibitor, partial curve, poor fit], O=C(Cn1c(=O)n(-c2ccc(Cl)cc2)c(=O)c2c3c(sc21)CCC3)c1ccccc1 7.08 µM [inhibitor, single point], C[C@H]1[C@@H]2[C@@H](O)C([C@H](C)C(=O)N(C)CCC#N)CC[C@@]2(C)CC[C@@H]1NS(C)(=O)=O (stereo partly specified) 35.5 µM [inhibitor, single point], O=C(Cn1ccn2nc3c(c2c1=O)CCCC3)NCc1ccccc1 3.16 µM [inhibitor, partial curve, poor fit], Cc1ccc(C(=O)N2CC(C(=O)NCCc3ccncc3)C3(CCOCC3)C2)cc1C (stereo unspecified) 8.91 µM [inhibitor, partial curve, poor fit], COc1cc(C(=O)N2C[C@@H](C)[C@@](C)(O)C2)ccn1 7.08 µM [inhibitor, single point], COc1ccc(C)cc1NC(=O)c1ccc2c(c1)nnn2C1CCCC1 0.158 µM [inhibitor, partial curve, poor fit], COc1ccccc1NC(=O)C1CCC(CNS(=O)(=O)c2ccc3c(c2)CC(C)N3C(C)=O)CC1 (stereo unspecified) 39.8 µM [inhibitor, single point], O=C(Cc1ccc(F)cc1)N1CCN(c2nccc(Nc3ccccc3F)n2)CC1 22.4 µM [inhibitor, single point], Cc1cc2nc(-c3ccc(OCc4ccccc4)cc3)cc(C(F)(F)F)n2n1 31.6 µM [inhibitor, partial curve, poor fit], Cc1ccc([S+](=O)([O-])N2CCC3(C2)C(=O)N(CCc2ccccc2)c2ccccc23)cc1 (stereo unspecified) 39.8 µM [inhibitor, single point], C=CCN1C[C@@H]2CN(C(=O)c3cccc(Cl)c3C)C[C@]2(C(=O)O)C1 0.708 µM [inhibitor, single point], O=C(NCc1cccc(Cl)c1)c1cc2c(s1)CCN(C(=O)c1ccccc1)C2 35.5 µM [inhibitor, single point], COc1ccc(-c2cc(-c3cccc(CO)c3)cn3cncc23)cc1 56.2 µM [inhibitor, single point], COc1cc(NC(=O)Cn2c(-c3ccc(F)cc3)nc(C)cc2=O)cc(OC)c1 39.8 µM [inhibitor, single point], CC(C)CCN(C(=O)Nc1ccc(Cl)c(Cl)c1)C(C)c1cccs1 (stereo unspecified) 39.8 µM [inhibitor, single point], COc1cccc(OC(=O)CSc2nnc(-c3ccc4c(c3)OCO4)o2)c1 15.8 µM [inhibitor, single point], O=C(CC1CCOC2(CCN(S(=O)(=O)c3ccccc3)CC2)C1)N1CCOCC1 (stereo unspecified) 14.1 µM [inhibitor, partial curve, poor fit], COCc1nc(CCNC(=O)c2cnn3c(C)c(Cc4ccccc4Cl)c(C)nc23)no1 11.2 µM [inhibitor, partial curve, poor fit], Cc1ccc(Cl)cc1NC(=O)CN1C(=O)C(C)(C)c2cc(S(=O)(=O)N3CCCCC3)ccc21 39.8 µM [inhibitor, single point], COc1ccc(C2CC(=O)c3cc(-c4nc(-c5cccc([N+](=O)[O-])c5)cs4)c(=O)n(-c4ccc(OC)cc4)c3C2)cc1 (stereo unspecified) 35.5 µM [inhibitor, partial curve, poor fit], Cc1noc2c(-c3cn[nH]c3)cc(-c3cccc(C(F)(F)F)c3)nc12 44.7 µM [inhibitor, single point], O=C1c2ccccc2-c2onc3c(NCCO)cc(NC4CCCCC4)c1c23 14.1 µM [inhibitor, partial curve]
